Our source for the binding values is publication PMC11338640.

Sequences of proteins named here, by UniProt entry; tags and fusion partners are left off.
UniProt A7MCY6: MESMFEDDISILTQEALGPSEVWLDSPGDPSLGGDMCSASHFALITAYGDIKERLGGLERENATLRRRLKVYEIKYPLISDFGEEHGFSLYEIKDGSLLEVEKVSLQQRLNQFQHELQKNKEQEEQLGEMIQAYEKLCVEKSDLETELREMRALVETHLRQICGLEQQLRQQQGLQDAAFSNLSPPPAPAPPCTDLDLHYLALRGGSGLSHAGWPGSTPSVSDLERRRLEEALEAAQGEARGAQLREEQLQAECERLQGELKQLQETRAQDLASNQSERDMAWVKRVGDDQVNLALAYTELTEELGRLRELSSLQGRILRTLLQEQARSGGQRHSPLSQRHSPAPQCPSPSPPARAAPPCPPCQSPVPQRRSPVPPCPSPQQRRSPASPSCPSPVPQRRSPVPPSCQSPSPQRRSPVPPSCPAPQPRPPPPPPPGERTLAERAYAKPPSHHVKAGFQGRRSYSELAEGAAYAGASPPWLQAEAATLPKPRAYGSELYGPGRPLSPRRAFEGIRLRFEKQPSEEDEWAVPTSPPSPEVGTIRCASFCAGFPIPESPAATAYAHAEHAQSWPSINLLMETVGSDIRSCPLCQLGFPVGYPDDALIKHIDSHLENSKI
UniProt Q7Z434: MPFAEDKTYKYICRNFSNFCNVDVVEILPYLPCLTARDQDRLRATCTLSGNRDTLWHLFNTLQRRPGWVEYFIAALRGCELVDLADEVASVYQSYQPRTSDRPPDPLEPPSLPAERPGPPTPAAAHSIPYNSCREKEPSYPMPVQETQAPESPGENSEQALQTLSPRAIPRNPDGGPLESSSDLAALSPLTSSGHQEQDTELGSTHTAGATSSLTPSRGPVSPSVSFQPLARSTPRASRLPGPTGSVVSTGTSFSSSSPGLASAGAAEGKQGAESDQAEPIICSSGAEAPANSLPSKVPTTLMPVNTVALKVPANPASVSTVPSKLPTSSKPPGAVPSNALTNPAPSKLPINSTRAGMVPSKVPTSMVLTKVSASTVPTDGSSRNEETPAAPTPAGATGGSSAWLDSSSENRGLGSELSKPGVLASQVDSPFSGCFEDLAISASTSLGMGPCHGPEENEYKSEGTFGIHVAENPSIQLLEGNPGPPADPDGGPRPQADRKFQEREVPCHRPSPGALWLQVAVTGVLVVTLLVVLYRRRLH
UniProt Q9H6S1: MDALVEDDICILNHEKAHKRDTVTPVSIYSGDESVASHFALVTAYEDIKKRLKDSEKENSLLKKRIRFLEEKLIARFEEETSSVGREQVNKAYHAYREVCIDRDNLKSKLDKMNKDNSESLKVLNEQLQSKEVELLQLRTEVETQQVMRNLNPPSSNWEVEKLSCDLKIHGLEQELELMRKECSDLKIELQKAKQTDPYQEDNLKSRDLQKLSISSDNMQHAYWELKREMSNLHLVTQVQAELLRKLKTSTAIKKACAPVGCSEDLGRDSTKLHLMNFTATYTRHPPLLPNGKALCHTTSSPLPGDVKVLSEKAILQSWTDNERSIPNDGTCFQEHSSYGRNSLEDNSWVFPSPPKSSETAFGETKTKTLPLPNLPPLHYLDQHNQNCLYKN
UniProt Q98256: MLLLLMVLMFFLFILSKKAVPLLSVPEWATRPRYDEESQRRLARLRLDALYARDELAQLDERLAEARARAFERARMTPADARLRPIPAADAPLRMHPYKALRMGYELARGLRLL

Assay [1] deals with endogenous TANK-binding kinase 1-binding protein 1 (TBKBP1) of HEK293T cells (human (endogenous in HEK293T)) (UniProt A7MCY6). Briefly: co-IP; HEK293T transfected with pCEP4-MC089-HA; immunoprecipitation with antibody to endogenous MAVS or endogenous TBKBP1.
Assay [2] has as its target endogenous mitochondrial antiviral-signalling protein (MAVS) of HEK293T cells (human (endogenous in HEK293T)) (UniProt Q7Z434). The description is as above.
Assay [3] addresses T1, TANK-binding kinase-1 (TBK1), FLAG-tagged (UniProt Q9UHD2).
T1 sequence: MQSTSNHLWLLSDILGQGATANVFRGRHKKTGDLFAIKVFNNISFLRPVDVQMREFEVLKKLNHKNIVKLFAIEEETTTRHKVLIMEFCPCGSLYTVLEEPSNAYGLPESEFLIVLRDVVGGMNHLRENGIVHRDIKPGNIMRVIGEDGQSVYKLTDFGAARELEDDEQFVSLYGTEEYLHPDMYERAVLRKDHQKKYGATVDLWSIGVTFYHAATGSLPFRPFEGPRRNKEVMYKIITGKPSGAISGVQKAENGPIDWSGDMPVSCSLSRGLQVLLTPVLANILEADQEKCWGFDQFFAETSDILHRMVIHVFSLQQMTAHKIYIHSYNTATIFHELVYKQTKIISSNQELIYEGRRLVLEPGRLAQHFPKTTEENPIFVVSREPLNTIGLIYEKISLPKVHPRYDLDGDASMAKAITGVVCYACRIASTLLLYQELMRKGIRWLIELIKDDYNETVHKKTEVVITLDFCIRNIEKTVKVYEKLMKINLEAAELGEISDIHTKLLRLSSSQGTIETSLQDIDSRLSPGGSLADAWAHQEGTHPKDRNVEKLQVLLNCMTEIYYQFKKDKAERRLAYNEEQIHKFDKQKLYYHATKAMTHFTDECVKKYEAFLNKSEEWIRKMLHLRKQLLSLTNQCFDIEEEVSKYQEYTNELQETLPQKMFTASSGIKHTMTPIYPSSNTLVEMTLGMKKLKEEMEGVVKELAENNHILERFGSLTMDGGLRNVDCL
The assay is described as follows: co-IP; HEK293T co-transfected (8 µg plasmid in all) with the HA-tagged MCV protein and FLAG-tagged signalling components; lysates precipitated on anti-FLAG M2 affinity gel overnight at 4 °C, eluted with FLAG peptide, blotted with anti-HA and anti-FLAG.

Assay [4] addresses mitochondrial antiviral-signalling protein (MAVS), FLAG-tagged (UniProt Q7Z434). Described as above.
Assay [5] addresses NF-kappa-B-activating kinase-associated protein 1 (NAP1), FLAG-tagged (UniProt Q9H6S1). The assay is described as above.
In assay [6] the target is T2, TRAF family member-associated NF-kappa-B activator (TANK), FLAG-tagged (UniProt Q92844).
T2 sequence: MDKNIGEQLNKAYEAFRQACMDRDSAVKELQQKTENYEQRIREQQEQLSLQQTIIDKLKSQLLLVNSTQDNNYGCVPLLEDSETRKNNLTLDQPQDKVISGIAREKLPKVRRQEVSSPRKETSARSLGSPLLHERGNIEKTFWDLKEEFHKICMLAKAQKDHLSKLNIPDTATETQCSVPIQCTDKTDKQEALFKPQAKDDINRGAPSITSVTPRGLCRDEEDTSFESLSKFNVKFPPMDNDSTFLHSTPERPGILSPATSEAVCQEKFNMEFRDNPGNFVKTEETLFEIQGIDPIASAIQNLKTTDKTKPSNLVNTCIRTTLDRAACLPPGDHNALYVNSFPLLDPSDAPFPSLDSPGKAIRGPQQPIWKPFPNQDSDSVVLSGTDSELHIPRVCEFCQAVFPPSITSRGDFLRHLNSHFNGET
Described as above.

In assay [7] the target is TANK-binding kinase 1-binding protein 1 (TBKBP1), FLAG-tagged (UniProt A7MCY6). The assay is described as above.
In assay [8] the target is T3, IκB kinase epsilon (IKKε), FLAG-tagged (UniProt Q14164).
T3 sequence: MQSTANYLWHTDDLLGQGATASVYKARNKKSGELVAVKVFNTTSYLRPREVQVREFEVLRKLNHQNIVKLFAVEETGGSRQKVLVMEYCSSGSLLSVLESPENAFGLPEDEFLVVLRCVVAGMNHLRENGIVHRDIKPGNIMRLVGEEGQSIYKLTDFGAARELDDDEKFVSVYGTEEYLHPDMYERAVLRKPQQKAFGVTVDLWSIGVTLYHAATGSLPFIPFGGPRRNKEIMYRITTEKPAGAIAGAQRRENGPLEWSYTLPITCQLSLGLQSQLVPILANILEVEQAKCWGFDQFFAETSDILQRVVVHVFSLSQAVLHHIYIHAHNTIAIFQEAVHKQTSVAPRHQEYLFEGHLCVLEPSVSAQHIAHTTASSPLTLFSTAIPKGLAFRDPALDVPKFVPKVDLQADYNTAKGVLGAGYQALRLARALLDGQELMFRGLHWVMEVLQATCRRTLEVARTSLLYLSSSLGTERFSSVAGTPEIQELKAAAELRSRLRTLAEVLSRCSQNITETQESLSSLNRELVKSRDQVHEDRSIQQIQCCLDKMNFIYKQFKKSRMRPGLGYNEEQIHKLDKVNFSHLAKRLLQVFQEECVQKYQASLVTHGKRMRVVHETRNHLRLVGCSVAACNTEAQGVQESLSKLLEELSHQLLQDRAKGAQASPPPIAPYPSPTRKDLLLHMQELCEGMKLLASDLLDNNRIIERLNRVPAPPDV
The description is as above.

Assay [9] addresses T4, IKKβ, FLAG-tagged (UniProt O14920).
T4 sequence: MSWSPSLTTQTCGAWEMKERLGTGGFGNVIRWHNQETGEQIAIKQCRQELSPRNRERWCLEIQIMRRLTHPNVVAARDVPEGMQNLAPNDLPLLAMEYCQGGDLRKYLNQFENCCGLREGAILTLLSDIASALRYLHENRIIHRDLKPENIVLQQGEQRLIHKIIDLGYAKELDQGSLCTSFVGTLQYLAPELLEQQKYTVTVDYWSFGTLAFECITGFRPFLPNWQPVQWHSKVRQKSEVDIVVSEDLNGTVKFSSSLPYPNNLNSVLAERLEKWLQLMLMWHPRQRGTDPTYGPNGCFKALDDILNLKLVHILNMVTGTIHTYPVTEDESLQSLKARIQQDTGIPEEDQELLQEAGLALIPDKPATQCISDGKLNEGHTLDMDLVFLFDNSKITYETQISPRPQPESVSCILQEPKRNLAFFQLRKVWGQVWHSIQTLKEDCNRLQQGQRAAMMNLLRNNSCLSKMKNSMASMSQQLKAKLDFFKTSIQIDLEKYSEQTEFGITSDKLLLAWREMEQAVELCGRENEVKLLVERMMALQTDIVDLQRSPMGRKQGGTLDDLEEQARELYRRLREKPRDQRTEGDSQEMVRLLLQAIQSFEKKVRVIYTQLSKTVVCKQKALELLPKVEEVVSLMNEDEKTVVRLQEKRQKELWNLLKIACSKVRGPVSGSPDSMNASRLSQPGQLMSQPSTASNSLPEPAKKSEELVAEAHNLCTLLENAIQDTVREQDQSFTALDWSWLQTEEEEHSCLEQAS
Described as above.

These are yes or no findings as the source states them, for the method shown. In cells and extracts the contact can be indirect. Some binding calls cover weakened binding; strength is not graded here. For some of these results: Sequences can lack the tags named with a protein.

As for “MC089-HA (molluscum contagiosum virus protein MC089, C-terminal HA tag, pCEP4) (from UniProt Q98256 1-114)”, the binding entry is “binds” in [1]; “binds” in [2]; “no binding” in [3]; “binds” in assay [4]; “binds” in assay [5]; “no binding” in [6]. In addition, the figures for the binding entry in assay [7], in assay [8] and in assay [9] were “binds”, “binds” and “no binding”, respectively.
As for “MC020 (molluscum contagiosum virus protein MC020, negative control) (from UniProt O40975 1-139)”, the binding result in assay [4], in assay [5], in assay [7] and in assay [8] was “no binding” each time.
